Assay results: PubChem BioAssay AID588855 (National Center for Advancing Translational Sciences (NCATS), 2011)
The campaign covered roughly 410,000 compounds. About 5,000 (1.2%) were called active. This list was built around the results that the source calls inconclusive (neither active nor inactive); the mix of calls is not that of the screen. Calls follow the shape of the dose curve; as a rule, active = well fitted inhibition curve with a large enough effect; inconclusive = small, poorly fitted or top-dose-only effect; inactive = no such curve, though single readings can be large or run the other way. A potency beside an inconclusive call is a rough fit, not a confirmed value.

Experiment: qHTS for Inhibitors of TGF-b; also: nearly all actives have a fitted effect of over 65% in size
Conditions: HepG2 CAGA-GFP TGF-b/SMAD3 reporter, GFP fluorescence, 18 h, TGF-beta stimulated, 500 pg/mL final; series mostly up to 46.1 µM; activity, negative = inhibition: at the top concentration
How it was run: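 First, reporter cells (HEPG2 CAGA-GFP) rested 2 h at 37 degrees C. Next, compounds were pinned in and TGF-beta added to 500 pg/mL final. After 18 h, GFP was imaged per cell and summed per well.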
% is scaled to controls: 0 for no effect and ±100 for the full control effect; potency is read from the fitted curve at half-maximal effect; tags tell the direction and shape of the fitted curve.

SMILES | activity, negative = inhibition | Potency
CC(C)(C)n1cnc2cc(NCc3ccccc3O)ccc21 | inactive: -22.3% | –
CCC1CCCCN1CC(=O)N1CCCc2c1c(=O)oc1ccc(OCc3ccccc3)cc21 (stereo unspecified) | – | inconclusive: 35.5 µM [inhibitor, single point]
NC(=O)COc1cc2oc(=O)c3c(c2cc1Cl)CCCC3 | inactive: 1.29% | –
COC(CNC(=O)c1ccc(N2CCC3(CC2)OCCO3)c([N+](=O)[O-])c1)OC | inactive: -2.09% | –
CCCC1=[N+](CC(=O)c2ccc(Br)cc2)CCn2cccc21 | inactive: -0.628% | –
Cc1cccc(CNc2ccc(S(=O)(=O)N3CCCCC3)cc2)c1 | – | inconclusive: 17.8 µM [inhibitor, single point]
CCc1ccc(/C=C/C(=O)c2cc(Br)ccc(=O)c2O)cc1 | – | inconclusive: 20 µM [inhibitor, single point]
CCN1CCN(c2ncnc3sc4c(c23)CCC(C)C4)CC1 (stereo unspecified) | inactive: 2.77% | –
COc1ccc(C)cc1-n1nnnc1SCn1nnc2ccccc2c1=O | – | inconclusive: 6.31 µM [inhibitor, single point]
CCc1ccc(C2CC(c3ccccc3Cl)Nc3nc(N)nn32)cc1 (stereo unspecified) | – | inconclusive: 2 µM [inhibitor, full curve, poor fit]
CN(C)c1ccc2c(c1)C(=NO)c1ccccc1-2 | – | inconclusive: 35.5 µM [inhibitor, single point]
O=S(=O)(c1cccc(S(=O)(=O)N2CCOCC2)c1)N1CCCCC1 | – | inconclusive: 6.31 µM [inhibitor, single point]
O=C(NCc1ccccc1Cl)c1[nH]c(C(F)(F)F)nc1-c1ccccc1 | – | inconclusive: 14.1 µM [inhibitor, partial curve, poor fit]
CCN(C(=O)c1cn(C)c(=O)c2ccccc12)c1ccccc1F | – | inconclusive: 14.1 µM [inhibitor, single point]
CCCS(=O)(=O)c1ncc(Cl)c(C(=O)Nc2scc(-c3ccccc3)c2C(=O)OCC)n1 | – | inconclusive: 12.6 µM [inhibitor, partial curve]
Cc1ccc(NC(=S)Nc2ccc3[nH]c(=O)[nH]c3c2)cc1C | – | inconclusive: 15.8 µM [inhibitor, single point]
Cc1nc2c(OCc3ccc(F)c(F)c3)cccn2c1N(C)C(=O)CCC1CCCC1 | – | inconclusive: 35.5 µM [inhibitor, single point]
COc1ccc(NC(=O)CCn2c(=O)c3cccn3c3ccccc32)cc1 | inactive: -0.705% | –
CC(C)c1cc(C(=O)N/N=C/C(Br)=C/c2ccccc2)n[nH]1 | – | inconclusive: 35.5 µM [inhibitor, single point]
NC(=S)NN=C1Cc2cccc3cccc1c23 | – | inconclusive: 1.41 µM [inhibitor, partial curve]
CCc1ccc(CN2CCN(C(=O)c3cccc(OC)c3OC)CC2)cc1 | inactive: -12.2% | –
COc1ccc(NC(=O)CC2C(=O)N(c3ccc(C)cc3)C(=O)N2CCc2ccccc2)cc1 (stereo unspecified) | – | inconclusive: 35.5 µM [inhibitor, single point]

SMILES | activity, negative = inhibition | Potency
c1ccc(-c2nc(-c3nccc4ccccc34)oc2-c2ccccc2)cc1 | – | inconclusive: 11.2 µM [inhibitor, partial curve, poor fit]
Cn1c(N=Cc2ccc([N+](=O)[O-])cc2)c(N)c(=O)n(C)c1=O | – | inconclusive: 0.891 µM [inhibitor, full curve, poor fit]
CS(=O)(=O)N1CCC(C(=O)NNC(=O)Nc2ccc(F)c(Cl)c2)CC1 | – | inconclusive: 0.562 µM [inhibitor, full curve, poor fit]
Cc1cc(C(=O)N/N=C/c2c(C)[nH]n(-c3ccccc3)c2=O)n[nH]1 | inactive: 27.6% | –
CCC1C(=O)N=C(SCC(=O)Nc2cccc3ccccc23)NC1=O (stereo unspecified) | – | inconclusive: 17.8 µM [inhibitor, single point]
Cc1ccc2nc(/C(C#N)=C/c3cn[nH]c3-c3ccc(F)cc3)[nH]c2c1 | – | inconclusive: 15.8 µM [inhibitor, single point]
Cc1c(OC(C)C(=O)NCc2ccccn2)ccc2c3c(c(=O)oc12)CCCC3 (stereo unspecified) | inactive: -14.7% | –
COc1ccccc1C(=O)NCCC(=O)N1CCN(S(=O)(=O)c2ccc(Cl)cc2)CC1 | inactive: -0.964% | –
O=C(NNC1=C(C(=O)C(F)(F)F)CCC1)c1cccc(Cl)c1 | – | inconclusive: 17.8 µM [inhibitor, partial curve, poor fit]
Cn1nc(-c2ccc(OCC(=O)Nc3ccccc3)cc2)c2ccccc2c1=O | inactive: -21.2% | –
COc1ccc2cc(S(=O)(=O)N3CCCCCC3)ccc2c1 | – | inconclusive: 35.5 µM [inhibitor, single point]
Cc1ccc(OCC(=O)N/N=C/c2ccc([N+](=O)[O-])o2)cc1 | – | active: 10 µM
Cc1cc(Cl)ccc1NC(=S)NC(C)(C)C | – | inconclusive: 35.5 µM [inhibitor, single point]
O=C(NC1CCCCC1)N1CCN(c2nc(-c3ccccc3)cs2)CC1 | – | inconclusive: 11.2 µM [inhibitor, partial curve, poor fit]
CCC(=O)Nc1cc2nn(-c3ccccc3)nc2cc1Cl | – | inconclusive: 0.794 µM [inhibitor, full curve, poor fit]
Cc1nc2ccn(Cc3ccco3)c(=O)c2cc1C(=O)N1CCN(c2ccccc2F)CC1 | – | inconclusive: 11.2 µM [inhibitor, partial curve]
COc1ccc(NC(=O)Cc2coc3cc(C)cc(C)c23)c(OC)c1 | inactive: 0.0616% | –
Cc1ccc(CNC(=O)CCSCc2ccc(C)cc2)cc1 | – | inconclusive: 3.16 µM [inhibitor, partial curve, poor fit]
O=C(Nc1cccc(-c2csc(Nc3ccc(Cl)cc3)n2)c1)c1ccccc1 | – | inconclusive: 25.1 µM [inhibitor, single point]
CCc1cccc2c(C(=O)CSc3nncn3C)c[nH]c12 | inactive: -3.34% | –
CCOC(=O)C1CCCN(CC(=O)Nc2c(C(=O)OC)[nH]c3ccc(Br)cc23)C1 (stereo unspecified) | – | inconclusive: 6.31 µM [inhibitor, single point]
CCn1c(C(=O)NCCCN2CCc3ccccc3C2)cc2sccc21 | inactive: -19% | –

SMILES | activity, negative = inhibition | Potency
COc1cccc(OCc2nc3ccccc3n2CCOc2ccccc2)c1 | – | inconclusive: 22.4 µM [inhibitor, single point]
O=C(c1ccc2c(c1)OCO2)C1CCCN(Cc2cccc(C(F)(F)F)c2)C1 (stereo unspecified) | – | inconclusive: 25.1 µM [inhibitor, single point]
Cc1cc(NC(=O)c2cccc(S(=O)(=O)N3c4ccccc4CC3C)c2)no1 (stereo unspecified) | – | inconclusive: 35.5 µM [inhibitor, single point]
CN1CCN(S(=O)(=O)c2ccc(NC(=O)c3cccc(S(=O)(=O)N4CCCC4)c3)cc2)CC1 | – | inconclusive: 35.5 µM [inhibitor, single point]
N=c1n(Cc2ccc(Cl)cc2)c2ccccc2n1CC(O)COc1ccccc1 (stereo unspecified) | – | inconclusive: 35.5 µM [inhibitor, single point]
CCc1cccc(CC)c1NC(=O)c1cc(S(=O)(=O)N2CCc3ccccc32)cn1C | – | inconclusive: 0.112 µM [inhibitor, full curve, poor fit]
COC(=O)c1c(NC(=O)CCCOc2ccc(C)cc2)sc2c1C(C(=O)OC)CC2 (stereo unspecified) | – | inconclusive: 35.5 µM [inhibitor, single point]
O=C(Nn1c(-c2ccc(Br)cc2)nc2ccccc2c1=O)c1ccc([N+](=O)[O-])cc1 | – | inconclusive: 35.5 µM [inhibitor, single point]
Cc1ccc(S(=O)(=O)NCC(=O)N2CCCC2)cc1 | – | inconclusive: 22.4 µM [inhibitor, single point]
CCc1ccc(C(=O)NNC(=O)CC2OC(=O)c3ccccc32)cc1 (stereo unspecified) | inactive: 3.88% | –
O=C(Nc1cccnc1)c1cc(S(=O)(=O)N2CCCCC2)c(Cl)cc1Cl | inactive: -3.15% | –
CC(C)c1ccccc1OCC(=O)NC1CCCc2ccccc21 (stereo unspecified) | – | active: 15.8 µM
COc1cccc(CN(C)C(=O)c2cc(S(=O)(=O)N3CCN(c4ccccc4)CC3)ccc2Cl)c1 | – | inconclusive: 17.8 µM [inhibitor, single point]
CC(C)(CC(=O)OCC(=O)Nc1ccc(F)c(Cl)c1)CC1=NS(=O)(=O)c2ccccc2N1 | – | inconclusive: 14.1 µM [inhibitor, single point]
NC(=O)N/N=C/c1ccc([N+](=O)[O-])o1 | – | inconclusive: 35.5 µM [inhibitor, single point]
CCOC(=O)c1[nH]c2ccccc2c1NC(=O)c1ccc(OC(C)C)cc1 | – | inconclusive: 25.1 µM [inhibitor, single point]
COc1ccc(C2/C=C\CN(S(=O)(=O)c3ccc(C)cc3)C(C)C(=O)N2Cc2ccc(F)cc2)cc1 (stereo unspecified) | inactive: -25.8% | –
COc1ccc(-c2nnc(COc3ccc(Br)cc3C)o2)cc1 | – | inconclusive: 11.2 µM [inhibitor, single point]
Cc1cc(C)n2cc(COc3ccc4ccccc4c3)nc2n1 | – | inconclusive: 35.5 µM [inhibitor, single point]
CC[C@]12c3[nH]c4ccc(Cl)cc4c3CCN1C(=O)[C@@H](CC(=O)NCCC1=CCCCC1)C[C@@H]2C(=O)N1CCN(C(=O)c2ccco2)CC1 | – | inconclusive: 17.8 µM [inhibitor, partial curve, poor fit]
Cc1ccc(NC(=S)NCCN(C2CCCCC2)C2CCCC2)cc1 | – | inconclusive: 35.5 µM [inhibitor, single point]
Cc1ccc(C(=O)c2c3ccc([N+](=O)[O-])cc3[n+]([O-])n2CCCC(N)=O)cc1 | – | inconclusive: 15.8 µM [inhibitor, single point]
